Measurements reported in the supplement of paper PMC4967469.
The IC50 comes from the fitted curve, where viability falls to half of the control; fits outside the tested doses are given as limits. For AUC the same curve is integrated over the 256-fold range of doses and scaled to a fraction; the more sensitive the line, the further below 1. For some assays here: An inferred top dose was derived from the fitted curves, not read from the paper. For some assays here: An entry number marks a drug with two screens in the source, which often give different values.

Key:
Experiment in all cases: Viability of human cancer cell lines after 72 h of drug (GDSC screen)
LFM-A13 = compound: C/C(O)=C(\C#N)C(=O)Nc1cc(Br)ccc1Br [LFM-A13]; conditions: top dose 16 µM; top dose inferred
Experimental: (§1)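 Human cancer cell lines in 384-well plates, medium with 10% serum, drug for 72 h over a 256-fold dose range (nine 2-fold or five 4-fold steps up to the top dose). Adherent lines were fixed and stained with the nucleic acid dye Syto60, suspension lines read with resazurin; signal relative to control wells, capped at 0 and 100%. One two-parameter sigmoid per drug and line, fitted in a mixed model over all curves with the slope shared within a line.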

TW-37 = compound: CC(C)c1ccccc1Cc1cc(C(=O)Nc2ccc(S(=O)(=O)c3ccccc3C(C)(C)C)cc2)c(O)c(O)c1O [TW-37]; conditions: top dose 5 µM
Experimental: as §1

Bicalutamide = compound: CC(O)(CS(=O)(=O)c1ccc(F)cc1)C(=O)Nc1ccc(C#N)c(C(F)(F)F)c1 [Bicalutamide]; conditions: top dose inferred
Experimental: as §1

AUY922 = compound: CCNC(=O)c1noc(-c2cc(C(C)C)c(O)cc2O)c1-c1ccc(CN2CCOCC2)cc1 [AUY922]; conditions: top dose 0.256 µM; top dose inferred
Experimental: as §1

KIN001-270 = compound: Cc1ccc(Nc2cc(-c3cccc(N4C(=O)c5ccccc5C4=O)c3)ncn2)cc1NS(C)(=O)=O [KIN001-270]; conditions: top dose 20 µM; top dose inferred
Experimental: as §1

Nilotinib = compound: Cc1cn(-c2cc(NC(=O)c3ccc(C)c(Nc4nccc(-c5cccnc5)n4)c3)cc(C(F)(F)F)c2)cn1 [Nilotinib]; conditions: top dose 2 µM
Experimental: as §1

GNF-2 = compound: NC(=O)c1cccc(-c2cc(Nc3ccc(OC(F)(F)F)cc3)ncn2)c1 [GNF-2]; conditions: top dose 1.28 µM; top dose inferred
Experimental: as §1

Gemcitabine = compound: Nc1ccn([C@@H]2O[C@H](CO)[C@@H](O)C2(F)F)c(=O)n1 [Gemcitabine]; conditions: top dose 1.024 µM
Experimental: as §1

T0901317 = compound: O=S(=O)(c1ccccc1)N(CC(F)(F)F)c1ccc(C(O)(C(F)(F)F)C(F)(F)F)cc1 [T0901317]; conditions: top dose 10.24 µM; top dose inferred
Experimental: as §1

MP470 = compound: S=C(NCc1ccc2c(c1)OCO2)N1CCN(c2ncnc3c2oc2ccccc23)CC1 [MP470]; conditions: top dose 20 µM; top dose inferred
Experimental: as §1

[1] = top dose 1.024 µM, screen: GDSC drug entry 150
[2] = top dose 10 µM, screen: GDSC drug entry 1502

| Cell Line | AUC (LFM-A13) | IC50 (LFM-A13) | AUC (TW-37) | IC50 (TW-37) | AUC (Bicalutamide; [1]) | IC50 (Bicalutamide; [1]) | AUC (Bicalutamide; [2]) | IC50 (Bicalutamide; [2]) | AUC (AUY922) | IC50 (AUY922) | AUC (KIN001-270) | IC50 (KIN001-270) | AUC (Nilotinib) | IC50 (Nilotinib) | AUC (GNF-2) | IC50 (GNF-2) | AUC (Gemcitabine) | IC50 (Gemcitabine) | AUC (T0901317) | IC50 (T0901317) | AUC (MP470) | IC50 (MP470) |
| --- | --- | --- | --- | --- | --- | --- | --- | --- | --- | --- | --- | --- | --- | --- | --- | --- | --- | --- | --- | --- | --- | --- |
| EW-18 (Ewing sarcoma, suspension) | 0.967 | > 16 µM | 0.641 | 0.789 µM | 0.985 | > 1.02 µM | 0.978 | > 10 µM | 0.741 | 0.0828 µM | 0.969 | > 20 µM | 0.94 | > 2 µM | 0.985 | > 1.28 µM | 0.648 | 0.169 µM | 0.956 | > 10.2 µM | 0.962 | > 20 µM |
| EW-24 (Ewing sarcoma, semi-adherent) | 0.992 | > 16 µM | 0.896 | 4.84 µM | 0.991 | > 1.02 µM | 0.99 | > 10 µM | 0.843 | 0.15 µM | 0.992 | > 20 µM | 0.991 | > 2 µM | 0.993 | > 1.28 µM | 0.964 | > 1.02 µM | 0.981 | > 10.2 µM | 0.846 | 12 µM |
| EoL-1-cell (haematopoietic neoplasm, suspension) | 0.98 | > 16 µM | 0.58 | 0.504 µM | 0.988 | > 1.02 µM | 0.958 | > 10 µM | 0.567 | 0.0238 µM | 0.883 | 17 µM | 0.034 | < 0.00781 µM | 0.984 | > 1.28 µM | 0.21 | 0.0103 µM | 0.926 | > 10.2 µM | 0.498 | 1.24 µM |
| Farage (B-cell lymphoma, suspension) | 0.984 | > 16 µM | 0.516 | 0.343 µM | 0.993 | > 1.02 µM | 0.99 | > 10 µM | 0.531 | 0.0191 µM | 0.875 | 13.8 µM | 0.972 | > 2 µM | 0.992 | > 1.28 µM | 0.129 | 0.00602 µM | 0.983 | > 10.2 µM | 0.845 | 10.7 µM |
| GB-1 (glioma, adherent) | 0.966 | > 16 µM | 0.394 | 0.151 µM | 0.976 | > 1.02 µM | 0.935 | > 10 µM | 0.433 | 0.0101 µM | 0.963 | > 20 µM | 0.983 | > 2 µM | 0.943 | > 1.28 µM | 0.165 | 0.00483 µM | 0.983 | > 10.2 µM | 0.874 | > 20 µM |
| GCIY (stomach, adherent) | 0.941 | > 16 µM | 0.389 | 0.148 µM | 0.973 | > 1.02 µM |  |  | 0.569 | 0.0254 µM | 0.964 | > 20 µM | 0.981 | > 2 µM | 0.975 | > 1.28 µM | 0.562 | 0.0964 µM | 0.86 | > 10.2 µM | 0.788 | 10 µM |
| GDM-1 (acute myeloid leukaemia, suspension) | 0.98 | > 16 µM | 0.835 | 3.09 µM | 0.984 | > 1.02 µM | 0.971 | > 10 µM | 0.337 | 0.00576 µM | 0.918 | > 20 µM | 0.907 | > 2 µM | 0.984 | > 1.28 µM | 0.519 | 0.0719 µM | 0.851 | 7.35 µM | 0.892 | > 20 µM |
| GI-1 (glioma, adherent) | 0.892 | > 16 µM | 0.4 | 0.168 µM | 0.987 | > 1.02 µM | 0.985 | > 10 µM | 0.638 | 0.0379 µM | 0.945 | > 20 µM | 0.953 | > 2 µM | 0.94 | > 1.28 µM | 0.187 | 0.00778 µM | 0.979 | > 10.2 µM | 0.949 | > 20 µM |
| GOTO (neuroblastoma, adherent) | 0.984 | > 16 µM | 0.462 | 0.243 µM | 0.983 | > 1.02 µM | 0.971 | > 10 µM | 0.782 | 0.123 µM | 0.896 | > 20 µM | 0.982 | > 2 µM | 0.981 | > 1.28 µM | 0.767 | 0.432 µM | 0.967 | > 10.2 µM | 0.378 | 0.548 µM |
| GR-ST (lymphoblastic leukaemia, suspension) | 0.966 | > 16 µM | 0.451 | 0.224 µM | 0.98 | > 1.02 µM | 0.952 | > 10 µM | 0.603 | 0.0325 µM | 0.922 | > 20 µM | 0.981 | > 2 µM | 0.972 | > 1.28 µM | 0.201 | 0.00666 µM | 0.916 | > 10.2 µM | 0.613 | 2.74 µM |
| GRANTA-519 (B-cell lymphoma, suspension) | 0.991 | > 16 µM | 0.574 | 0.486 µM | 0.986 | > 1.02 µM |  |  | 0.843 | 0.154 µM | 0.976 | > 20 µM | 0.974 | > 2 µM | 0.991 | > 1.28 µM | 0.355 | 0.0266 µM | 0.964 | > 10.2 µM | 0.936 | > 20 µM |
| GT3TKB (stomach, adherent) | 0.982 | > 16 µM | 0.515 | 0.341 µM | 0.99 | > 1.02 µM | 0.971 | > 10 µM | 0.449 | 0.0118 µM | 0.983 | > 20 µM | 0.98 | > 2 µM | 0.966 | > 1.28 µM | 0.258 | 0.0144 µM | 0.981 | > 10.2 µM | 0.888 | 18 µM |
